This is an account of results in the BET-seq Pho4 binding data (Le et al. 2018).

Some of the results follow. Values were computed here from the reads of four pooled replicates and scatter widely.

The experiment deals with T1, Pho4 (S. cerevisiae) (UniProt P07270).
T1 sequence: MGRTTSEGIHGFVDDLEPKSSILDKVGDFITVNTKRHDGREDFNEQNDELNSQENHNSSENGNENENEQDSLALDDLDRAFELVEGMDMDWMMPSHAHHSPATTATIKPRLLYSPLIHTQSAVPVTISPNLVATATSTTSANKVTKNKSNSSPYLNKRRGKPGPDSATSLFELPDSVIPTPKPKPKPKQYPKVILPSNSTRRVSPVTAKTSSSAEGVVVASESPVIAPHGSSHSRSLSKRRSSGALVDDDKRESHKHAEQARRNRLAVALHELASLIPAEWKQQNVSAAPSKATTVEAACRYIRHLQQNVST
The experiment in a line: relative binding free energy (BET-seq); higher = weaker binding. The settings on record: reference: library average.
Consider ATGTGCACGTGGGTGA, for which the “relative binding free energy” value was -0.08 kcal/mol.

As for TGAAGCACGTGAGGGG, the “relative binding free energy” value came to 0.23 kcal/mol.

As to AGGGGCACGTGGTACG, the “relative binding free energy” value was -0.16 kcal/mol.

For the sequence GTTAGCACGTGAGGGC, the “relative binding free energy” value turned out to be 0.26 kcal/mol.

With AGAAGCACGTGGTGTA, the “relative binding free energy” value is -0.24 kcal/mol.

TCGCGCACGTGGTGTT: the “relative binding free energy” value was -0.14 kcal/mol.

Consider CAGTGCACGTGTGATT, for which the “relative binding free energy” value is 0.03 kcal/mol.

As to GTAGGCACGTGCGGCG, the “relative binding free energy” value was -0.13 kcal/mol.

For TTGTTCACGTGGGTAA, the “relative binding free energy” value is 0.14 kcal/mol.

As to CGTGCCACGTGGGTTA, the “relative binding free energy” value is -0.25 kcal/mol.

In the case of TTGGACACGTGTTTGA, the “relative binding free energy” value amounted to 0.04 kcal/mol.

In the case of CTAGTCACGTGGGATG, the “relative binding free energy” value is -0.12 kcal/mol.

In the case of CGGATCACGTGTGTAT, the “relative binding free energy” value came to 0.21 kcal/mol.

Regarding GTCGGCACGTGAAGTT, the “relative binding free energy” value came out at 0.3 kcal/mol.

For AGCGGCACGTGCGAGT, the “relative binding free energy” value was -0.07 kcal/mol.

Consider GGTCGCACGTGTTGTC, for which the “relative binding free energy” value is 0.04 kcal/mol.

With GTCGTCACGTGATTAT, the “relative binding free energy” value was determined as 0.32 kcal/mol.

On to CAATGCACGTGGTGAG, for which the “relative binding free energy” value was -0.12 kcal/mol.

As to GGTCGCACGTGTAGTA, the “relative binding free energy” value was -0.06 kcal/mol.

For the sequence GTTAGCACGTGTGAAT, the “relative binding free energy” value came out at 0.06 kcal/mol.

Take GTAGCCACGTGGTGTG: the “relative binding free energy” value was -0.27 kcal/mol.

For the sequence TTACGCACGTGGGCTG, the “relative binding free energy” value was -0.18 kcal/mol.

In the case of TTCTACACGTGGAGGT, the “relative binding free energy” value came out at 0.04 kcal/mol.

For the sequence TCAGGCACGTGGAGGT, the “relative binding free energy” value was -0.22 kcal/mol.

In the case of TGTCTCACGTGAGGCT, the “relative binding free energy” value turned out to be 0.25 kcal/mol.

AGGACCACGTGTTTGG: the “relative binding free energy” value was -0.07 kcal/mol.

GTGACCACGTGGTTGG: the “relative binding free energy” value is 0.01 kcal/mol.

In the case of GTTATCACGTGGATAG, the “relative binding free energy” value came to 0.15 kcal/mol.

Consider GAGGACACGTGTAGGT, for which the “relative binding free energy” value was 0.02 kcal/mol.

Consider GACTGCACGTGGTAGG, for which the “relative binding free energy” value was -0.02 kcal/mol.

As to TTGGGCACGTGTAAAG, the “relative binding free energy” value was 0.16 kcal/mol.

As to GTACGCACGTGTATTG, the “relative binding free energy” value was determined as 0.04 kcal/mol.

As to AGATACACGTGTGTAG, the “relative binding free energy” value is 0.04 kcal/mol.

For GCCGTCACGTGGGTTT, the “relative binding free energy” value was -0.01 kcal/mol.

On to GAGTTCACGTGGTGTA, for which the “relative binding free energy” value was 0.18 kcal/mol.

Take TGGAGCACGTGTGCTT: the “relative binding free energy” value was -0.09 kcal/mol.

Consider CGTTGCACGTGGCGTG, for which the “relative binding free energy” value was 0.03 kcal/mol.

Take GGGGTCACGTGGTCTC: the “relative binding free energy” value stood at 0.16 kcal/mol.

On to ATGTGCACGTGCCGGG, for which the “relative binding free energy” value was -0.01 kcal/mol.

Consider AGCTGCACGTGGTAGC, for which the “relative binding free energy” value was determined as 0.11 kcal/mol.

As for TTGGTCACGTGGTGAG, the “relative binding free energy” value is 0.13 kcal/mol.

Take GTAGGCACGTGTTATG: the “relative binding free energy” value was -0.12 kcal/mol.

Take TGAAACACGTGGTTAT: the “relative binding free energy” value is -0.02 kcal/mol.

Consider CGTTACACGTGGGGAA, for which the “relative binding free energy” value turned out to be 0.02 kcal/mol.

As to TTGGGCACGTGAGTTC, the “relative binding free energy” value came to 0.21 kcal/mol.

As to AAGTCCACGTGGCGGG, the “relative binding free energy” value is 0.06 kcal/mol.

With AAGGGCACGTGGGCGC, the “relative binding free energy” value is -0.22 kcal/mol.

As for TCGTGCACGTGGTGCA, the “relative binding free energy” value is -0.12 kcal/mol.

As to ATGAACACGTGTGTTG, the “relative binding free energy” value is -0.04 kcal/mol.

For the sequence GTACGCACGTGTGTAT, the “relative binding free energy” value was 0.08 kcal/mol.

For the sequence TGTGGCACGTGTCAGC, the “relative binding free energy” value was -0.1 kcal/mol.

Take TTCGACACGTGGATTG: the “relative binding free energy” value stood at 0.13 kcal/mol.

Take CTTATCACGTGTATGG: the “relative binding free energy” value was found to be 0.05 kcal/mol.

As for TGAAGCACGTGGTCTA, the “relative binding free energy” value was -0.07 kcal/mol.

Turning to CGCTGCACGTGAGGTT, the “relative binding free energy” value worked out at 0.18 kcal/mol.

As for GGCGACACGTGTAGTG, the “relative binding free energy” value stood at 0.13 kcal/mol.

With GTGAACACGTGGTGGC, the “relative binding free energy” value was 0.06 kcal/mol.

As to TGCAGCACGTGGAAGG, the “relative binding free energy” value is -0.13 kcal/mol.

Turning to GGATTCACGTGTGCCG, the “relative binding free energy” value amounted to 0.37 kcal/mol.

As to TTTGTCACGTGGGATG, the “relative binding free energy” value was -0.05 kcal/mol.

As for TCGTACACGTGGGTGC, the “relative binding free energy” value was -0.08 kcal/mol.

Regarding ATGGGCACGTGCATTG, the “relative binding free energy” value is -0.18 kcal/mol.

With GTAGTCACGTGAGTTT, the “relative binding free energy” value is 0.3 kcal/mol.

Take GATGTCACGTGGCCTG: the “relative binding free energy” value was 0.05 kcal/mol.

For the sequence TTACACACGTGGTGGG, the “relative binding free energy” value is 0.12 kcal/mol.

As for ATCGTCACGTGTGGAG, the “relative binding free energy” value came to 0.23 kcal/mol.

Turning to GGGGGCACGTGCTTAG, the “relative binding free energy” value is -0.01 kcal/mol.

Regarding TATAACACGTGGTCGT, the “relative binding free energy” value was -0.21 kcal/mol.

With GAGGGCACGTGAAGAA, the “relative binding free energy” value stood at 0.21 kcal/mol.

As to CGTAGCACGTGGTGCA, the “relative binding free energy” value is -0.11 kcal/mol.

Take GTTCACACGTGAATGT: the “relative binding free energy” value is 0.32 kcal/mol.

Consider TTTGTCACGTGAGGAG, for which the “relative binding free energy” value is 0.35 kcal/mol.

On to CTCGGCACGTGGGGTG, for which the “relative binding free energy” value is -0.32 kcal/mol.

Regarding GTCTTCACGTGTTATG, the “relative binding free energy” value worked out at 0.2 kcal/mol.

Regarding GTCTACACGTGGGTGA, the “relative binding free energy” value was found to be 0.17 kcal/mol.

Regarding GGTTACACGTGGAGTC, the “relative binding free energy” value came out at 0.24 kcal/mol.

On to GTTGTCACGTGGACTT, for which the “relative binding free energy” value is 0.08 kcal/mol.

As to TTATACACGTGAGGGT, the “relative binding free energy” value is 0.23 kcal/mol.

As for ATTAGCACGTGACGTG, the “relative binding free energy” value stood at 0.08 kcal/mol.

For ATCTTCACGTGTATGT, the “relative binding free energy” value was determined as 0.28 kcal/mol.

In the case of GGGGGCACGTGACGGG, the “relative binding free energy” value stood at 0.09 kcal/mol.

For the sequence AATAGCACGTGTATGG, the “relative binding free energy” value is -0.12 kcal/mol.

On to TTGTACACGTGTTTGC, for which the “relative binding free energy” value is -0.05 kcal/mol.

GAGAGCACGTGGGGCT: the “relative binding free energy” value was -0.21 kcal/mol.

With GTGAACACGTGTTTGG, the “relative binding free energy” value worked out at 0.06 kcal/mol.

For ATATTCACGTGAGGCT, the “relative binding free energy” value is 0.24 kcal/mol.

Turning to ATTTACACGTGTTGTT, the “relative binding free energy” value is 0.01 kcal/mol.

As for GTACGCACGTGAGGTT, the “relative binding free energy” value was determined as 0.2 kcal/mol.

On to TTGGTCACGTGGCCGT, for which the “relative binding free energy” value was -0.03 kcal/mol.

Consider GTCTGCACGTGGGGCT, for which the “relative binding free energy” value was -0.03 kcal/mol.

Take GTCCTCACGTGTGGTT: the “relative binding free energy” value was 0.33 kcal/mol.

For TTGGCCACGTGAAAGT, the “relative binding free energy” value is 0.18 kcal/mol.

As to TGGGTCACGTGTGATG, the “relative binding free energy” value came to 0.19 kcal/mol.

Consider TAGGCCACGTGGGTAG, for which the “relative binding free energy” value is -0.15 kcal/mol.

For the sequence GGGGACACGTGTGGTG, the “relative binding free energy” value came out at 0.1 kcal/mol.

With GTTGACACGTGTAGCG, the “relative binding free energy” value is 0.16 kcal/mol.

On to AATATCACGTGAGGGG, for which the “relative binding free energy” value amounted to 0.26 kcal/mol.

For ATTATCACGTGGGGGG, the “relative binding free energy” value is 0.02 kcal/mol.

As to TGATTCACGTGTGGCA, the “relative binding free energy” value came to 0.13 kcal/mol.

Turning to CGTTTCACGTGTGGCA, the “relative binding free energy” value was 0.22 kcal/mol.

For AGGGGCACGTGTACAG, the “relative binding free energy” value was -0.29 kcal/mol.

Take AAGTTCACGTGGGAGA: the “relative binding free energy” value is 0.1 kcal/mol.

On to CGGATCACGTGTTAGG, for which the “relative binding free energy” value was determined as 0.06 kcal/mol.

Consider CAGGGCACGTGACGGG, for which the “relative binding free energy” value worked out at 0.06 kcal/mol.

As for TTGATCACGTGTTCAG, the “relative binding free energy” value turned out to be 0.1 kcal/mol.

On to TACTGCACGTGGTGGT, for which the “relative binding free energy” value was -0.05 kcal/mol.

With GTTGACACGTGTATTT, the “relative binding free energy” value worked out at 0.09 kcal/mol.

Turning to TGTGGCACGTGTTGAT, the “relative binding free energy” value is -0.05 kcal/mol.

For the sequence CGGGTCACGTGTTGAT, the “relative binding free energy” value was determined as 0.09 kcal/mol.

As to GTGACCACGTGTCGGG, the “relative binding free energy” value came to 0.06 kcal/mol.

On to TGACGCACGTGGATGT, for which the “relative binding free energy” value was -0.16 kcal/mol.

For the sequence ATGGCCACGTGGCGTA, the “relative binding free energy” value is -0.15 kcal/mol.

For the sequence CTTTTCACGTGATTAG, the “relative binding free energy” value stood at 0.28 kcal/mol.

Take GGTGTCACGTGGTTCC: the “relative binding free energy” value came to 0.15 kcal/mol.

For TCGGACACGTGGTGCG, the “relative binding free energy” value was -0.12 kcal/mol.
